# Laboratory results: the antibiotic and cytotoxicity screens of Wong et al. (2023)
# Some of the results follow.
# Legend:
# [1] = system: HSkMC (human skeletal muscle cells); assay: cytotoxicity call (relative viability < 0.9); settings: 10 µM
# [2] = system: HepG2; assay: cytotoxicity call (relative viability < 0.9); settings: 10 µM
# [3] = system: S. aureus RN4220; assay: growth inhibition call (relative growth <= 0.2); settings: 50 µM
Compound,cytotoxicity call [1],cytotoxicity call [2],growth inhibition call [3]
Cc1noc(C)c1S(=O)(=O)N(C)C[C@H]1Oc2ccc(NC(=O)C3CCCCC3)cc2CC(=O)N([C@H](C)CO)C[C@H]1C,inactive,inactive,inactive
CC(C)C#Cc1ccc2c(c1)O[C@@H](CN(C)C(=O)c1cnccn1)[C@@H](C)CN([C@H](C)CO)S2(=O)=O,inactive,inactive,inactive
COc1ccc(CN(C)C[C@H]2OCCCC[C@H](C)Oc3ccc(NS(=O)(=O)c4ccc(F)cc4)cc3C(=O)N([C@H](C)CO)C[C@H]2C)cc1,inactive,inactive,inactive
COc1ccc(NC(=O)Nc2cccc3c2O[C@@H](CN(C)C(=O)Nc2cccc4ccccc24)[C@H](C)CN([C@@H](C)CO)C3=O)cc1,inactive,inactive,inactive
C[C@H]1CCCCO[C@H](CN(C)C(=O)Cc2ccccc2)[C@@H](C)CN([C@@H](C)CO)C(=O)c2cc(NC(=O)Cc3ccccc3)ccc2O1,inactive,inactive,inactive
C[C@@H]1CN([C@H](C)CO)C(=O)c2cc(NC(=O)Nc3ccc(F)cc3)ccc2O[C@H]1CN(C)Cc1ccc(C(F)(F)F)cc1,active,active,inactive
COC(=O)c1cn(C[C@@H](Cc2ccccc2)NC(=O)N[C@H](CO)CCc2oc(C(C)=O)c(C(=O)OC)c2C(=O)OC)nn1,inactive,inactive,inactive
